Source: PubChem BioAssay AID504832 (National Center for Advancing Translational Sciences (NCATS), 2011)
The campaign covered roughly 310,000 compounds. About 18,000 (5.8%) were called active. The inconclusive results got no clear call from the source; some entries with a clear call stand among them for comparison. Calls follow the shape of the dose curve; as a rule, active = well fitted inhibition curve with a large enough effect; inconclusive = small, poorly fitted or top-dose-only effect, or another doubt; inactive = no such curve, though single readings can be large or run the other way. Potencies of inconclusive entries are left out as doubtful fits.
% is scaled to controls: 0 for no effect and ±100 for the full control effect; potency is read from the fitted curve at half-maximal effect; tags tell the direction and shape of the fitted curve.

Assay: Primary qHTS for delayed death inhibitors of the malarial parasite plastid, 48 hour incubation
Settings: P. falciparum luciferase growth in erythrocytes; series mostly up to 28.7 µM; activity change, negative = inhibition: at the top concentration
How it was run: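 A one-generation exposure of luciferase-tagged malaria parasites in RPMI 1640/Albumax erythrocyte culture, 37 C and 5% CO2. Inhibition is inferred from decreased luminescence after adding detection reagent.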
In the case of `COc1ccc(-c2ccc(CCC(=O)O)n2C(C)C)cc1`, the Potency is reported as inconclusive [inhibitor, single point]. In the case of `CCSc1nnc(-c2ccc(S(=O)(=O)NCc3cccs3)cc2)o1`, the Potency is reported as inconclusive [inhibitor, single point]. In the case of `CCc1cc(C(=O)N(C)CC(=O)Nc2c(Cl)cccc2Cl)sc1C`, the Potency is reported as inconclusive [inhibitor, single point]. In the case of `CC(=O)C(Sc1nc(N(C)C)nc(N(C)C)n1)C(=O)Nc1ccccc1` (stereo unspecified), the “activity change, negative = inhibition” value is reported as inactive: -13.9%. For `CCCCCC(=O)Nc1ccc2oc(-c3ccncc3)nc2c1`, the Potency was inconclusive [inhibitor, single point]. For `COc1ccc(/C=C2\SC(=S)N(CCCCCC(=O)Nc3cc(C)on3)C2=O)cc1OC`, the Potency was inconclusive [inhibitor, single point]. With `O=c1[nH]c(=O)n(-c2ccccc2)c2c1C(C(F)(F)F)(C(F)(F)F)N=C(CCC1CCCCC1)N2` the Potency was inconclusive [inhibitor, single point]. For `Cc1ccccc1NC(=O)c1sc2nc3c(c(-c4ccco4)c2c1N)CCCC3`, the Potency was inconclusive [inhibitor, single point]. With `Fc1ccc2c(c1)C1C=CCC1C(c1cc3c(cc1Br)OCO3)N2` (stereo unspecified) the Potency was active: 5.22 µM. For `COc1ccc(CN(C)C(=O)Cn2ccc(N)nc2=O)cc1OC`, the “activity change, negative = inhibition” value was inactive: 26.9%. For `Cc1ccc(OCc2nc(C#N)c(N3CCN(Cc4ccccc4)CC3)o2)cc1`, the “activity change, negative = inhibition” value was inactive: -25.2%. With `O=C(O)CCCn1cc(NC(=O)COc2ccc([N+](=O)[O-])cc2)cn1` the Potency was inconclusive [inhibitor, partial curve, poor fit]. In the case of `O=c1/c(=C\c2cccn2-c2ccccc2)sc2nc3ccccc3n12`, the “activity change, negative = inhibition” value is reported as inactive: 16.9%. For `CC1CCN(CCCCOc2cccc(Br)c2)CC1`, the Potency was inconclusive [inhibitor, single point]. With `CCN1CCN(c2nc3ccccn3c(=O)c2C=O)CC1` the “activity change, negative = inhibition” value was inactive: 16%. In the case of `Cc1csc(SCC(=O)NC2CCC(C)CC2)n1` (stereo unspecified), the “activity change, negative = inhibition” value is reported as inactive: 8.42%. For `CCN(CC)S(=O)(=O)c1ccc2oc(Nc3ccc4c(c3)OCCO4)nc2c1`, the Potency was inconclusive [inhibitor, single point]. With `COc1ccc(/C=C(/NC(=O)c2ccccc2OC)C(=O)Nc2ccc(C(=O)O)cc2)cc1` the “activity change, negative = inhibition” value was inactive: -8.64%. For `CCN(CC)S(=O)(=O)c1cccc(C(=O)N[C@H](C(=O)Nc2nc3ccccc3s2)C(C)C)c1`, the “activity change, negative = inhibition” value was inactive: 0%. For `O=C(C[n+]1cccc(CNC(=O)c2ccc(OC(F)F)cc2)c1)Nc1ccccc1Cl`, the Potency was active: 13.1 µM. In the case of `N#Cc1c(C#N)c(-c2ccccc2)n(-c2ccccc2)c1N`, the Potency is reported as inconclusive [inhibitor, partial curve, poor fit].
